{"source": "the supplement of paper PMC8728848", "assay_in_all_cases": "glycan array binding signal (z-score within array); higher = stronger binding", "details_in_all_cases": "glycan notation: IUPAC condensed, linker removed", "key": {"Gal6S(b1-4)Glc6S": {"molecular_target": "Gal6S(b1-4)Glc6S", "procedure,_shortened": "(§1)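 Arrays were curated from the Consortium for Functional Glycomics database, 3228 in total, and kept only where the protein sequence was available. Binding is expressed as a within-array Z-score. This score was averaged across arrays of the same protein sequence at different concentrations or buffers and across linkers, and negative values can be read as non-binding.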"}, "Gal6S(b1-4)GlcNAc": {"molecular_target": "Gal6S(b1-4)GlcNAc", "procedure,_shortened": "as §1"}, "Gal6S(b1-4)GlcNAc6S": {"molecular_target": "Gal6S(b1-4)GlcNAc6S", "procedure,_shortened": "as §1"}, "GalNAc(a1-3)Gal": {"molecular_target": "GalNAc(a1-3)Gal", "procedure,_shortened": "as §1"}, "GalNAc(a1-3)GalNAc": {"molecular_target": "GalNAc(a1-3)GalNAc", "procedure,_shortened": "as §1"}, "[1]": {"molecular_target": "GalNAc(a1-3)GalNAc(a1-3)Gal(a1-4)Gal(b1-4)GlcNAc", "procedure,_shortened": "as §1"}, "[2]": {"molecular_target": "GalNAc(a1-3)GalNAc(b1-3)Gal(a1-4)Gal(b1-4)Glc", "procedure,_shortened": "as §1"}, "GalNAc(b1-3)Gal": {"molecular_target": "GalNAc(b1-3)Gal", "procedure,_shortened": "as §1"}, "[3]": {"molecular_target": "GalNAc(b1-3)Gal(a1-4)Gal(b1-4)GlcNAc", "procedure,_shortened": "as §1"}, "[4]": {"molecular_target": "GalNAc(b1-3)Gal(a1-4)Gal(b1-4)GlcNAc(b1-3)Gal(b1-4)Glc", "procedure,_shortened": "as §1"}, "[5]": {"molecular_target": "GalNAc(b1-3)Gal(a1-6)Gal(b1-4)Glc", "procedure,_shortened": "as §1"}, "GalNAc(b1-3)GalNAc": {"molecular_target": "GalNAc(b1-3)GalNAc", "procedure,_shortened": "as §1"}, "GalNAc(b1-3)GlcNAc": {"molecular_target": "GalNAc(b1-3)GlcNAc", "procedure,_shortened": "as §1"}, "GalNAc(b1-4)Gal(b1-4)Glc": {"molecular_target": "GalNAc(b1-4)Gal(b1-4)Glc", "procedure,_shortened": "as §1"}, "GalNAc(b1-4)GlcNAc": {"molecular_target": "GalNAc(b1-4)GlcNAc", "procedure,_shortened": "as §1"}, "[6]": {"molecular_target": "GalNAc(b1-4)GlcNAc(b1-2)Man", "procedure,_shortened": "as §1"}, "[7]": {"molecular_target": "GalNAc(b1-4)GlcNAc(b1-2)Man(a1-3)[GalNAc(b1-4)GlcNAc(b1-2)Man(a1-6)]Man(b1-4)GlcNAc(b1-4)GlcNAc", "procedure,_shortened": "as §1"}, "[8]": {"molecular_target": "GalNAc(b1-4)GlcNAc(b1-3)GalNAc(b1-4)GlcNAc", "procedure,_shortened": "as §1"}, "GalNAc(b1-4)GlcNAc6S": {"molecular_target": "GalNAc(b1-4)GlcNAc6S", "procedure,_shortened": "as §1"}, "GalNAc(b1-6)GalNAc": {"molecular_target": "GalNAc(b1-6)GalNAc", "procedure,_shortened": "as §1"}, "GalNAc3S(b1-4)GlcNAc": {"molecular_target": "GalNAc3S(b1-4)GlcNAc", "procedure,_shortened": "as §1"}, "GalNAc3S(b1-4)GlcNAc3S": {"molecular_target": "GalNAc3S(b1-4)GlcNAc3S", "procedure,_shortened": "as §1"}, "[9]": {"molecular_target": "GalNAc3S(b1-4)[Fuc(a1-3)]GlcNAc", "procedure,_shortened": "as §1"}, "GalNAc4S6S(b1-4)GlcNAc": {"molecular_target": "GalNAc4S6S(b1-4)GlcNAc", "procedure,_shortened": "as §1"}, "GalNAc6S(b1-4)GlcNAc": {"molecular_target": "GalNAc6S(b1-4)GlcNAc", "procedure,_shortened": "as §1"}, "Glc(a1-4)Glc": {"molecular_target": "Glc(a1-4)Glc", "procedure,_shortened": "as §1"}, "[10]": {"molecular_target": "Glc(a1-4)Glc(a1-4)Glc(a1-4)Glc", "procedure,_shortened": "as §1"}, "Glc(a1-6)Glc(a1-6)Glc": {"molecular_target": "Glc(a1-6)Glc(a1-6)Glc", "procedure,_shortened": "as §1"}, "[11]": {"molecular_target": "Glc(a1-6)Glc(a1-6)Glc(a1-6)Glc", "procedure,_shortened": "as §1"}, "Glc(b1-4)Glc": {"molecular_target": "Glc(b1-4)Glc", "procedure,_shortened": "as §1"}, "Glc(b1-6)Glc": {"molecular_target": "Glc(b1-6)Glc", "procedure,_shortened": "as §1"}, "GlcA(b1-3)Gal": {"molecular_target": "GlcA(b1-3)Gal", "procedure,_shortened": "as §1"}, "GlcA(b1-3)GlcNAc": {"molecular_target": "GlcA(b1-3)GlcNAc", "procedure,_shortened": "as §1"}, "GlcA(b1-6)Gal": {"molecular_target": "GlcA(b1-6)Gal", "procedure,_shortened": "as §1"}, "[12]": {"molecular_target": "GlcA3S(b1-3)Gal(b1-4)GlcNAc(b1-2)Man", "procedure,_shortened": "as §1"}, "[13]": {"molecular_target": "GlcA3S(b1-3)Gal(b1-4)GlcNAc(b1-3)Gal(b1-4)Glc", "procedure,_shortened": "as §1"}, "[14]": {"molecular_target": "GlcNAc(a1-3)Gal(b1-4)GlcNAc", "procedure,_shortened": "as §1"}, "[15]": {"molecular_target": "GlcNAc(a1-4)Gal(b1-3)GlcNAc", "procedure,_shortened": "as §1"}, "[16]": {"molecular_target": "GlcNAc(a1-4)Gal(b1-4)GalNAc", "procedure,_shortened": "as §1"}, "[17]": {"molecular_target": "GlcNAc(a1-4)Gal(b1-4)GlcNAc", "procedure,_shortened": "as §1"}, "[18]": {"molecular_target": "GlcNAc(a1-4)Gal(b1-4)GlcNAc(b1-3)Gal(b1-4)Glc", "procedure,_shortened": "as §1"}, "[19]": {"molecular_target": "GlcNAc(a1-4)Gal(b1-4)GlcNAc(b1-3)Gal(b1-4)GlcNAc", "procedure,_shortened": "as §1"}, "[20]": {"molecular_target": "GlcNAc(a1-4)Gal(b1-4)GlcNAc(b1-3)Gal(b1-4)GlcNAc(b1-3)Gal(b1-4)GlcNAc", "procedure,_shortened": "as §1"}, "[21]": {"molecular_target": "GlcNAc(a1-4)Gal(b1-4)GlcNAc(b1-3)Gal(b1-4)[Fuc(a1-3)]GlcNAc(b1-3)Gal(b1-4)[Fuc(a1-3)]GlcNAc", "procedure,_shortened": "as §1"}, "[22]": {"molecular_target": "GlcNAc(a1-6)Gal(b1-4)GlcNAc", "procedure,_shortened": "as §1"}}, "note": "The list shows a part of the results.", "data": [{"binder": "Microvirin-2 (Microcystis aeruginosa) (protein) MPNFSHTCSSINYDPDSTILSAECQARDGEWLPTELRLSDHIGNIDGELQFGDQNFQETCQDCHLEFGDGEQSVWLVCTCQTMDGEWKSTQILLDSQIDNNDSQLEIGGSMPNFSHTCSSINYDPDSTILSAECQARDGEWLPTELRLSDHIGNIDGELQFGDQNFQETCQDCHLEFGDGEQSVWLVCTCQTMDGEWKSTQILLDSQIDNNDSQLEIG", "values": [{"measurement": "glycan array binding signal (z-score)", "setting": "Gal6S(b1-4)Glc6S", "value": -0.128}, {"measurement": "glycan array binding signal (z-score)", "setting": "Gal6S(b1-4)GlcNAc", "value": -0.151}, {"measurement": "glycan array binding signal (z-score)", "setting": "Gal6S(b1-4)GlcNAc6S", "value": -0.142}, {"measurement": "glycan array binding signal (z-score)", "setting": "GalNAc(a1-3)Gal", "value": -0.139}, {"measurement": "glycan array binding signal (z-score)", "setting": "GalNAc(a1-3)GalNAc", "value": -0.142}, {"measurement": "glycan array binding signal (z-score)", "setting": "[1]", "value": -0.135}, {"measurement": "glycan array binding signal (z-score)", "setting": "[2]", "value": -0.145}, {"measurement": "glycan array binding signal (z-score)", "setting": "GalNAc(b1-3)Gal", "value": -0.134}, {"measurement": "glycan array binding signal (z-score)", "setting": "[3]", "value": -0.131}, {"measurement": "glycan array binding signal (z-score)", "setting": "[4]", "value": -0.14}, {"measurement": "glycan array binding signal (z-score)", "setting": "[5]", "value": -0.13}, {"measurement": "glycan array binding signal (z-score)", "setting": "GalNAc(b1-3)GalNAc", "value": -0.129}, {"measurement": "glycan array binding signal (z-score)", "setting": "GalNAc(b1-3)GlcNAc", "value": -0.139}, {"measurement": "glycan array binding signal (z-score)", "setting": "GalNAc(b1-4)Gal(b1-4)Glc", "value": -0.113}, {"measurement": "glycan array binding signal (z-score)", "setting": "GalNAc(b1-4)GlcNAc", "value": -0.122}, {"measurement": "glycan array binding signal (z-score)", "setting": "[6]", "value": -0.134}, {"measurement": "glycan array binding signal (z-score)", "setting": "[7]", "value": 0.118}, {"measurement": "glycan array binding signal (z-score)", "setting": "[8]", "value": -0.131}, {"measurement": "glycan array binding signal (z-score)", "setting": "GalNAc(b1-4)GlcNAc6S", "value": -0.142}, {"measurement": "glycan array binding signal (z-score)", "setting": "GalNAc(b1-6)GalNAc", "value": -0.133}, {"measurement": "glycan array binding signal (z-score)", "setting": "GalNAc3S(b1-4)GlcNAc", "value": -0.135}, {"measurement": "glycan array binding signal (z-score)", "setting": "GalNAc3S(b1-4)GlcNAc3S", "value": -0.133}, {"measurement": "glycan array binding signal (z-score)", "setting": "[9]", "value": -0.141}, {"measurement": "glycan array binding signal (z-score)", "setting": "GalNAc4S6S(b1-4)GlcNAc", "value": -0.147}, {"measurement": "glycan array binding signal (z-score)", "setting": "GalNAc6S(b1-4)GlcNAc", "value": -0.139}, {"measurement": "glycan array binding signal (z-score)", "setting": "Glc(a1-4)Glc", "value": -0.134}, {"measurement": "glycan array binding signal (z-score)", "setting": "[10]", "value": -0.127}, {"measurement": "glycan array binding signal (z-score)", "setting": "Glc(a1-6)Glc(a1-6)Glc", "value": -0.135}, {"measurement": "glycan array binding signal (z-score)", "setting": "[11]", "value": -0.117}, {"measurement": "glycan array binding signal (z-score)", "setting": "Glc(b1-4)Glc", "value": -0.132}, {"measurement": "glycan array binding signal (z-score)", "setting": "Glc(b1-6)Glc", "value": -0.124}, {"measurement": "glycan array binding signal (z-score)", "setting": "GlcA(b1-3)Gal", "value": -0.14}, {"measurement": "glycan array binding signal (z-score)", "setting": "GlcA(b1-3)GlcNAc", "value": -0.131}, {"measurement": "glycan array binding signal (z-score)", "setting": "GlcA(b1-6)Gal", "value": -0.139}, {"measurement": "glycan array binding signal (z-score)", "setting": "[12]", "value": -0.135}, {"measurement": "glycan array binding signal (z-score)", "setting": "[13]", "value": -0.133}, {"measurement": "glycan array binding signal (z-score)", "setting": "[14]", "value": -0.138}, {"measurement": "glycan array binding signal (z-score)", "setting": "[15]", "value": -0.142}, {"measurement": "glycan array binding signal (z-score)", "setting": "[16]", "value": -0.137}, {"measurement": "glycan array binding signal (z-score)", "setting": "[17]", "value": -0.147}, {"measurement": "glycan array binding signal (z-score)", "setting": "[18]", "value": -0.139}, {"measurement": "glycan array binding signal (z-score)", "setting": "[19]", "value": -0.147}, {"measurement": "glycan array binding signal (z-score)", "setting": "[20]", "value": -0.122}, {"measurement": "glycan array binding signal (z-score)", "setting": "[21]", "value": -0.031}, {"measurement": "glycan array binding signal (z-score)", "setting": "[22]", "value": -0.142}]}]}
